The test addresses T1, G6B-b pY237 phosphopeptide (biotinylated 60-mer, amino acids 182 to 241, ITSM phosphorylated) (human) (UniProt O95866).
T1 sequence (peptide, phosphotyrosine at 237; biotin (end not stated)): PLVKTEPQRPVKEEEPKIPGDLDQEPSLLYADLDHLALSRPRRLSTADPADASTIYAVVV
Put plainly: pull-down; biotinylated G6B-b peptides on Streptactin beads incubated with pre-cleared NP-40 lysate of washed human platelets activated with 1 ug/ml CRP for 90 seconds, 4°C, 30 minutes; Western blotting; only the target purified. (In general: Immunoblotting shows a protein as a band on a membrane.)

The chains behind the UniProt entries cited, without tags or fusion partners.
UniProt P41240: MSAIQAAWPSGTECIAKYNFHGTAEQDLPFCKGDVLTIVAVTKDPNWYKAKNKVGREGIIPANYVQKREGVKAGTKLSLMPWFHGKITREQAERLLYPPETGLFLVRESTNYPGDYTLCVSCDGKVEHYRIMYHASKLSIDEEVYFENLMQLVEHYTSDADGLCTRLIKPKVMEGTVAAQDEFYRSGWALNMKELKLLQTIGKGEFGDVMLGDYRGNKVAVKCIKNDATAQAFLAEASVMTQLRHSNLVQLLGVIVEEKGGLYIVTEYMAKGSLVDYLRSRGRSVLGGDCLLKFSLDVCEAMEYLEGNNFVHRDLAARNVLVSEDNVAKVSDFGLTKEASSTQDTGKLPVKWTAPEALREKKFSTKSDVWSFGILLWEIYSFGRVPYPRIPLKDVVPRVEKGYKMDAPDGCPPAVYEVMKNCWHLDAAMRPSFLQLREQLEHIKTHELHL
UniProt P06241: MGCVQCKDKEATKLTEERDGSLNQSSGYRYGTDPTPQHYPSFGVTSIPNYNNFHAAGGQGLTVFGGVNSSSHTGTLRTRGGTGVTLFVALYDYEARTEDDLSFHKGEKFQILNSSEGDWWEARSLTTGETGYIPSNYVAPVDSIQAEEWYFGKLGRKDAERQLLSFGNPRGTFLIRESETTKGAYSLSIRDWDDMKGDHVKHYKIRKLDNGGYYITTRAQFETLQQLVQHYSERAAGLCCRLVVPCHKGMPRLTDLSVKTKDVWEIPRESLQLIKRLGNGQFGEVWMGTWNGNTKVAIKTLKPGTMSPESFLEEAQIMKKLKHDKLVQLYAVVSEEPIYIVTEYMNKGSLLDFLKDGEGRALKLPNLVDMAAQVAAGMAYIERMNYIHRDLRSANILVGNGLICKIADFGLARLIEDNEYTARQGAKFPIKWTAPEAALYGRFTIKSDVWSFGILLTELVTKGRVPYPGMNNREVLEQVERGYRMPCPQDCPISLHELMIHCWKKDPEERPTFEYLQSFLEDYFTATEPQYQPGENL

These are yes or no findings as the source states them, for the method shown. Binding seen in cells or lysates may run through a third protein. Some results given as binding are weak or reduced against the parent protein; the word gives no strength.

As for “Csk (endogenous, human platelets) (from UniProt P41240 1-450) (enzyme)”, the binding entry was “binds”. For the substance “Fyn (endogenous, human platelets) (from UniProt P06241 1-537) (enzyme)”, the binding entry is listed as “binds”.

Source of the values: publication PMC3501490, “An Investigation of Hierachical Protein Recruitment to the Inhibitory Platelet Receptor, G6B-b” (PLoS ONE, 2012).
